These results are taken from the supplement of paper PMC8007513.

Structures can show the parent of a compound that is named as a salt. ± gives the standard error. Screen size: about 1,300 compounds; about 75 (6%) showed an effect of 50% or more. This is one part of the list.

The subject of the experiment is Trichoderma virens ATCC 9645. In words: growth yield (OD600) relative to untreated control; higher = less growth inhibition. The following applies: compound concentration: 100 uM. In short, it runs like this: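 A biocide at 200 ng ml^−1 was co-applied to some wells, and library compounds were present in all test wells at 100 μM final. The wells held 100 μl of Trichoderma virens ATCC 9645 spores at 15,000 spores ml^−1 in potato dextrose broth, grown at 30 °C in 96-well plates, with OD600 read at 40 h and 72 h. Results are relative growth against the control without either agent, averaged across duplicate screens.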

For `Cc1ccc(-c2ncc(Cl)cc2-c2ccc(S(C)(=O)=O)cc2)cn1` [Etoricoxib], the growth yield runs as follows: (40 h) 104 ± 2.5%; (72 h) 103 ± 3.4%.

As for `CC1CCc2c(N3CCC(O)CC3)c(F)cc3c(=O)c(C(=O)O)cn1c23` (stereo not drawn) [Nadifloxacin], the growth yield by setting is: (40 h) 99.3 ± 1.1%; (72 h) 91.14 ± 0.52%.

In the case of `Clc1ccc(COC(Cn2ccnc2)c2ccc(Cl)cc2Cl)c(Cl)c1` (stereo not drawn) [Miconazole], the growth yield by setting is: (40 h) 1.43 ± 1.1%; (72 h) 1.47 ± 0.63%.

For `Cc1cc(=O)n(-c2ccccc2)n1C` [Antipyrine], the growth yield runs as follows: (40 h) 105 ± 2.2%; (72 h) 101 ± 2.2%.

In the case of `NC12CC3CC(CC(C3)C1)C2` [Adamantamine fumarate], the growth yield (40 h) came to 102 ± 1.8% and the growth yield (72 h) was 98.69 ± 0.94%.

For the molecule `CN(C)CC/C=C1\c2ccccc2CSc2ccccc21` [Dosulepin hydrochloride], the growth yield by setting is: (40 h) 106 ± 4.8%; (72 h) 108 ± 4.7%.

In the case of `CC(C)(Oc1ccc(Cl)cc1)C(=O)O` [Clofibric acid], the growth yield is 93.9 ± 4% (40 h) and 87.8 ± 3% (72 h).

For the molecule `Cn1c(=O)c2c(ncn2CC(=O)O)n(C)c1=O` [Acefylline], the growth yield runs as follows: (40 h) 96.6 ± 1.9%; (72 h) 95.12 ± 0.94%.

Consider `Cc1cc(C(=O)NNCc2ccccc2)no1` [Isocarboxazid], for which the growth yield reads like this: (40 h) 102 ± 7%; (72 h) 94.3 ± 4.5%.

`CO[C@H]1C[C@H](O[C@H]2[C@H](C)[C@@H](O[C@@H]3O[C@H](C)C[C@H](N(C)C)[C@H]3OC(C)=O)[C@@H](C)C[C@@]3(CO3)C(=O)[C@H](C)[C@@H](OC(C)=O)[C@@H](C)[C@@H](C)OC(=O)[C@@H]2C)O[C@@H](C)[C@@H]1OC(C)=O` [Troleandomycin] displayed a growth yield (40 h) of 100.5 ± 0.79% and a growth yield (72 h) of 98.4 ± 1.3%.

For the molecule `COc1cc(OC)c(C(=O)CCCN2CCCC2)c(OC)c1` [Buflomedil hydrochloride], the growth yield (40 h) amounted to 107 ± 5.1% and the growth yield (72 h) came out at 105 ± 7.1%.

As for `N#CC(c1ccc(Cl)cc1)c1c(Cl)cc(-n2ncc(=O)[nH]c2=O)cc1Cl` (stereo not drawn) [Diclazuril], the growth yield by setting is: (40 h) 95.62 ± 0.64%; (72 h) 89.46 ± 0.1%.

Take `CCN1C(=O)NC(c2ccccc2)C1=O` (stereo not drawn) [Ethotoin]: the growth yield by setting is: (40 h) 100 ± 2.1%; (72 h) 96.3%.

Regarding `CN1CCCC(CC2c3ccccc3Sc3ccccc32)C1` (stereo not drawn) [Metixene hydrochloride], the growth yield is 91.3 ± 10% (40 h) and 106 ± 11% (72 h).

For the molecule `COc1ccccc1N1CCN(CC(O)COc2cccc3ccccc23)CC1` (stereo not drawn) [Naftopidil dihydrochloride], the growth yield (40 h) is 97.4 ± 1.1% and the growth yield (72 h) was 110.22 ± 0.1%.

Regarding `CN1CCC(=C2c3ccccc3CC(=O)c3sccc32)CC1` [Ketotifen fumarate], the growth yield is, setting by setting: (40 h) 95.78 ± 0.48%; (72 h) 101 ± 2.9%.

On to `COc1ccc2c(c1)N(C[C@H](C)CN(C)C)c1ccccc1S2` [Methotrimeprazine maleat salt], for which the growth yield turned out to be 103 ± 10% (40 h) and 107 ± 7.1% (72 h).

On to `CCCN(CCC)C(=O)C(CCC(=O)O)NC(=O)c1ccccc1` (stereo not drawn) [Proglumide], for which the growth yield is, setting by setting: (40 h) 99.91 ± 0.16%; (72 h) 97.1%.

For `CC(C)(Sc1cc(C(C)(C)C)c(O)c(C(C)(C)C)c1)Sc1cc(C(C)(C)C)c(O)c(C(C)(C)C)c1` [Probucol], the growth yield worked out at 99.8 ± 1.9% (40 h) and 103.8 ± 0.21% (72 h).

As to `Nc1c(Br)cc(Br)cc1CN[C@H]1CC[C@H](O)CC1` [Ambroxol hydrochloride], the growth yield was determined as 97.5% (40 h) and 104.56 ± 0.1% (72 h).

Molecule `Cn1ccnc1S` [Methimazole] gave a growth yield (40 h) of 96.7 ± 3% and a growth yield (72 h) of 95.33 ± 0.32%.

As to `COCC1=C(C(=O)OC(C)OC(=O)OC(C)C)N2C(=O)[C@@H](NC(=O)/C(=N\OC)c3csc(N)n3)[C@H]2SC1` (stereo partly drawn) [Cefpodoxime proxetil], the growth yield is 111 ± 5.2% (40 h) and 109 ± 1.9% (72 h).

For the molecule `CCN(CC)CCOC(=O)C(c1ccccc1)C1CCCCC1` (stereo not drawn) [Drofenine hydrochloride], the growth yield amounted to 98 ± 6.5% (40 h) and 99 ± 6.3% (72 h).

`COc1cc(Cc2cnc(N)nc2N)cc(OC)c1OC` [Trimethoprim]: the growth yield worked out at 103 ± 3.5% (40 h) and 104 ± 1.5% (72 h).

For `O=C(CCCN1CCC(O)(c2ccc(Br)cc2)CC1)c1ccc(F)cc1` [Bromperidol], the growth yield by setting is: (40 h) 104.4 ± 0.48%; (72 h) 105.4 ± 0.1%.

As for `CC(=O)c1ccc2c(c1)N(CCCN1CCC(CCO)CC1)c1ccccc1S2` [Piperacetazine], the growth yield is 124 ± 8.6% (40 h) and 119 ± 8.9% (72 h).

For the molecule `CO[C@@]1(NC(=O)Cc2cccs2)C(=O)N2C(C(=O)O)=C(COC(N)=O)CS[C@@H]21` [Cefoxitin sodium salt], the growth yield is, setting by setting: (40 h) 94.4 ± 3.5%; (72 h) 94.8 ± 1.9%.

Consider `CCCCC(CC)CN1CN(CC(CC)CCCC)CC(C)(N)C1` (stereo not drawn) [Hexetidine], for which the growth yield by setting is: (40 h) 105 ± 3.2%; (72 h) 118 ± 6.3%.

For the molecule `COc1cc2c(cc1OC)C(=O)C(CC1CCN(Cc3ccccc3)CC1)C2` (stereo not drawn) [Donepezil hydrochloride], the growth yield was 99.91 ± 0.16% (40 h) and 98.69 ± 0.94% (72 h).

Consider `Cc1cccc(C)c1NC(=O)C1CCCCN1C` (stereo not drawn) [Mepivacaine hydrochloride], for which the growth yield by setting is: (40 h) 99.3 ± 2.1%; (72 h) 96.6 ± 1.4%.

In the case of `CN1C(C(=O)Nc2ccccn2)=C(O)c2sccc2S1(=O)=O` [Tenoxicam], the growth yield (40 h) turned out to be 96.3 ± 3.5% and the growth yield (72 h) turned out to be 101 ± 1.7%.

Consider `Cc1ncc([N+](=O)[O-])n1CC(O)CCl` (stereo not drawn) [Ornidazole], for which the growth yield was 99.8 ± 2.9% (40 h) and 103 ± 2.3% (72 h).

For the molecule `C[C@]12CC[C@H]3C(=CCc4cc(O)ccc43)[C@@H]1CCC2=O` [Equilin], the growth yield runs as follows: (40 h) 92.3 ± 8.1%; (72 h) 87 ± 4.8%.

For the molecule `C=C[C@H]1CN2CC[C@H]1C[C@@H]2[C@@H](O)c1ccnc2ccc(OC)cc12` [Quinidine hydrochloride monohydrate], the growth yield is, setting by setting: (40 h) 104 ± 1.6%; (72 h) 105 ± 1.1%.
